We go through 56 molecules from ChEMBL document CHEMBL4888484, “Replenishing the malaria drug discovery pipeline: Screening and hit evaluation of the MMV Hit Generation Library 1 (HGL1) against asexual blood stage Plasmodium falciparum ,using a nano luciferase reporter read-out” (2022).

Out of some 150,000 compounds screened, about 540 (0.36%) showed an effect of 50% or more. This is one part of the list.

The experiment relates to Plasmodium falciparum. In words: Primary screen in NF54 nanoGlo assay, in single point, at 2uM, 72h; a lower Z score goes with more inhibition. The class given is functional, Erythrocyte. The settings on record: timepoint 72 hour.
One may read the % Inhibition as the relative decrease from the control value, in per cent. Regarding `Cc1cc(C)nc(N[C@H]2CCCN(Cc3cccc(O)c3)C2)n1`, the “% Inhibition” value amounted to 12% and the Z score was -1.96.
For `CC1CCCN(C(=O)c2cccc3c2OCO3)C1CN` (configuration not stated) the same measures were 9% and -1.73.
For `CCN(CC)CC(=O)NC1(Cc2ccc(O)cc2)CCCCC1` the same measures were -2% and 0.31.
For `Cc1cc(-c2nc3ccccc3s2)ccc1NC(=O)Nc1cccc(Cl)c1` the same measures were -5% and 0.71.
Turning to `COc1ccc(N2CCN(c3nc4ccccc4c(=O)n3-c3cccc(C)c3C)CC2)cc1`, the “% Inhibition” value is 5% and the Z score was -0.73.
With `Cc1ccc(F)c2oc(C(=O)NC[C@H]3CC(=O)N(C)[C@@H]3c3cnn(C)c3C)cc12`, the “% Inhibition” value is recorded as 6% and the Z score is reported as -1.14.
The matching figures for `Cc1nn(C[C@H]2CCOC2)c(N)c1C#N`: 8% and -1.52.
For the molecule `CC(C)(C)c1cc(C(F)(F)F)nc(NC(=O)NS(=O)(=O)N(Cc2ccccc2)c2ccccc2)n1`, the “% Inhibition” value was -4% and the Z score worked out at 0.69.
Consider `Cc1c(-c2c(-c3ccccc3)ncn2CC(N)=O)c2ccccc2n1CC(=O)O`, for which the “% Inhibition” value worked out at 2% and the Z score is on record as -0.29.
As for `CCOc1cncc(CNc2cc(Br)ccc2CO)c1`, the “% Inhibition” value came to 17% and the Z score is listed as -1.98.
The matching figures for `CCCn1cnc2cc(-c3noc(CNC(=O)c4cccs4)n3)ccc21`: 8% and -1.09.
For `Cc1ccc(NC(=O)c2c(C)noc2C2CC2)c(C)c1O` the same measures were -2% and 0.19.
For `Cc1csc(N2C(=O)[C@H](C)N(C3CC3)C2=O)n1` the same measures were 0% and 0.03.
In the case of `O=C(CC(F)(F)F)Nc1ccccc1F`, the “% Inhibition” value was -6% and the Z score is 0.62.
For the molecule `COc1cc2c(cc1OC)CN(C(=O)c1nc(N3CCOCC3)ncc1Cl)CC2`, the “% Inhibition” value is given as 3% and the Z score is recorded as -0.44.
In the case of `Cc1cnn([C@@H](C)C2CC2)c1NC(=O)NCc1sc(C(C)C)nc1C`, the “% Inhibition” value is reported as -2% and the Z score was 0.3.
For `C[C@H]1C(=O)NCCN1Cc1nnc(C(C)(C)C)o1` the same measures were 1% and -0.21.
Turning to `CN(Cc1cnnn1Cc1ccccc1)CC1(O)CCOCC1`, the “% Inhibition” value is on record as -7% and the Z score worked out at 0.94.
For `Cc1nn(-c2ccc3nncn3n2)c2c1[C@@H](c1ccc(F)cc1)CC(O)=N2`, the “% Inhibition” value was -6% and the Z score worked out at 0.77.
As to `Cc1cn2nc(N[C@H]3CCN(C(=O)c4cc(F)c[nH]4)C3)ccc2n1`, the “% Inhibition” value is given as -4% and the Z score is on record as 0.57.
In the case of `OCC[C@H]1CCCCN1c1ccc(CNc2ncccn2)cn1`, the “% Inhibition” value was found to be 14% and the Z score is recorded as -1.53.
For the molecule `O=C(c1ccco1)n1nc(-c2ccco2)oc1=S`, the “% Inhibition” value is given as -10% and the Z score turned out to be 1.4.
For the molecule `c1ccc(CCc2cn(CCN3CCNCC3)nn2)cc1`, the “% Inhibition” value was -23% and the Z score is 2.01.
For `O=S(=O)([C@H]1CCN(c2ccnc3c(F)cccc23)C1)N1CCCC1`, the “% Inhibition” value is listed as -1% and the Z score is recorded as 0.07.
For `CC(=O)OC(COC1C[C@@H]2CC[C@@]1(C)C2(C)C)C[N+]1(C)CCCCC1` (some centres not stated) the same measures were -3% and 0.33.
For `CCn1nccc1NC(=O)c1nc2ccc(F)cc2[nH]1` the same measures were 5% and -0.71.
For `COC(=O)c1cc(CN2CCC[C@H](c3nc(C)cs3)C2)c[nH]1` the same measures were 7% and -0.9.
For `Cc1c(Cl)cccc1C(=O)NCC1CCCC12NC(=O)NC2=O` (configuration not stated), the “% Inhibition” value was -3% and the Z score was determined as 0.28.
In the case of `CC(C)c1nnc(NS(=O)(=O)Cc2cccc(C(F)(F)F)c2)o1`, the “% Inhibition” value is 8% and the Z score was -0.78.
Turning to `Cc1ccc(C(=O)NCC(=O)N2CCCC2)cn1`, the “% Inhibition” value is -9% and the Z score is given as 1.73.
The matching figures for `Nc1ccc(Oc2nc(Oc3ccc(N)cc3)c(F)c(Oc3ccc(N)cc3)c2F)cc1`: -3% and 0.28.
With `O=C(CCC1CCCC1)N1CCC[C@H]1C1CCNCC1`, the “% Inhibition” value is given as -10% and the Z score is reported as 1.61.
As for `CC1CCC(NC(=O)CN(C)CC(N)=O)CC1` (configuration not stated), the “% Inhibition” value is recorded as -4% and the Z score is 0.7.
The matching figures for `CCn1cc(CC(=O)NCC(C)C)c2cccnc21`: -19% and 2.2.
As to `O=C(CCc1ccc(=O)[nH]n1)N[C@H]1COCC[C@@H]1Oc1ccccn1`, the “% Inhibition” value was -8% and the Z score is reported as 0.99.
The matching figures for `O=C(NC1(CO)CCCC1)[C@H]1CC(=O)N(CCOc2ccccc2Cl)C1`: -6% and 0.62.
`CC1CN(C(=O)NC(c2c(F)cccc2F)C(F)(F)F)CCC1=O` (configuration not stated): the “% Inhibition” value is given as -6% and the Z score came out at 0.69.
Turning to `CCCc1cc2c(s1)N[C@H](c1ccc(C)cc1)NC2=O`, the “% Inhibition” value is 6% and the Z score was -0.66.
Turning to `CN(C(=O)Nc1cccc2cccnc12)C1CC1`, the “% Inhibition” value was -12% and the Z score is reported as 2.17.
The matching figures for `CCOc1cccc(-n2cc(-c3ccccc3)nc2NC(=O)CN(C(=O)c2ccc(Cl)cc2Cl)C2CC2)c1`: -6% and 0.57.
`CN(Cc1ccccc1F)C(=O)C1=CCC1`: the “% Inhibition” value was -15% and the Z score was found to be 1.8.
Turning to `O=C(N[C@H]1CCCn2ncnc21)c1cncc(F)c1`, the “% Inhibition” value is reported as -12% and the Z score was 1.8.
The matching figures for `CCc1nn(C)c(NC(=O)NCc2cnn3cccnc23)c1C`: -2% and 0.29.
Regarding `CC(C)CNC(=O)CS(=O)(=O)Cc1ccccc1`, the “% Inhibition” value is listed as -6% and the Z score was 1.18.
For `COc1ccc(COCC(=O)NCc2cnn3c2CCCC3)cc1` the same measures were 1% and -0.13.
For `O=C(COc1ccccc1)N[C@H]1CCCCNC1=O` the same measures were -18% and 1.6.
The matching figures for `CC1CC(NC(=O)c2ccc[nH]2)C(=O)N1c1ccccc1` (configuration not stated): -11% and 2.19.
Regarding `Cc1cccc(NC(=O)CN2CCN(/C(=N\c3cccc(C(=O)O)c3)NC[C@H]3CCCO3)CC2)c1`, the “% Inhibition” value was -24% and the Z score was determined as 2.23.
The matching figures for `CC[C@H](NC(=O)c1c(Cl)cnn1C)c1nc(C)c(C)s1`: -9% and 1.23.
On to `c1cc2c(c(-c3ccc(N4CCCC4)nn3)c1)OCC2`, for which the “% Inhibition” value is on record as -16% and the Z score was determined as 2.35.
The matching figures for `Cc1cc(C)n([C@H]2[C@@H]3OC[C@@H](O3)[C@@H](NCc3cnn(C)c3)[C@@H]2O)n1`: -6% and 0.85.
In the case of `O=S(=O)(N1CCCC1)N1CCC(F)(F)CC1`, the “% Inhibition” value is listed as -17% and the Z score was 2.23.
`Cc1cc(C)n(C(=O)CCCc2ccccc2)n1`: the “% Inhibition” value is -2% and the Z score is 0.23.
As to `O=C1CCCN1CC(=O)N1CC2(CCC2)[C@@H]1C1CC1`, the “% Inhibition” value is -1% and the Z score is reported as 0.21.
On to `Cc1nonc1CN(C)Cc1ccnc2ccccc12`, for which the “% Inhibition” value came to 0% and the Z score is given as 0.07.
The matching figures for `CCN(Cc1nccn1C)C(=O)N[C@@H](C)c1nc(-c2cccc(C)c2)no1`: -1% and 0.13.
